Measured values published in the RNAGym collection of RNA variant scans (doi:10.7554/elife.90254).
Read counts are not given, so values of variants with three or more changes are uncertain.

B1: LINE1-full (parent)
chain: UACGUAGGUGGUUUUCCCCUGAUAGUGCUAAGGGGGCCUGGAAGUUUGGACUGGGCAGAGCUCAACACAGCGUGGCAAAGUGGCUGUGGCUAGACUGCCUCUCUGGAUUCCUCGUCACUCAGCAGGGCAUCUCUGAGAGAAAUGCC

Variants of: B1
Assay: self-cleavage, relative activity (ratio to wild type); higher = more cleavage; in vitro, sequencing; the parent is a self-cleaving ribozyme
U9A U23C A57U gave a self-cleavage of 0.02.
Variant A6G U91C A121G has a self-cleavage of 0.88.
For U9A U14C U23C A30G G33A A79C, the self-cleavage was 0.61.
In the case of A6G U102A A117G, the self-cleavage is reported as 1.58.
In the case of A6U A140G A142G, the self-cleavage is reported as 1.31.
Variant A6U U29C U39C A67G G74A U96A A129G has a self-cleavage of 0.27.
A6G U13C U46C U112A gave a self-cleavage of 1.18.
G7A U96C A107G showed a self-cleavage of 0.05.
Work on A6U A31G A79G C111U yielded a self-cleavage of 1.74.
For U9A G54U A59U U81C U130C, the self-cleavage was 0.24.
G7A U15C U23C U29C U47C A57C U85A A121U gave a self-cleavage of 0.
For U9A U12C A42G, the self-cleavage was 0.98.
A6U G75A A92G U130A gave a self-cleavage of 0.06.
In the case of U9A A22U A64U C113U, the self-cleavage is reported as 0.41.
In the case of G8C U100C A129G, the self-cleavage is reported as 2.55.
For U9A U13C A42G U87A, the self-cleavage was 0.17.
With A6G U14C U23C U62A G122A the self-cleavage was 0.25.
With G7U A79G C99U the self-cleavage was 0.06.
In the case of G7A U9C A43G U73A A141G, the self-cleavage is reported as 1.36.
Work on U9A A65G C98A yielded a self-cleavage of 0.15.
For A6G U26A A43G U73C U85A, the self-cleavage was 0.
With A6G U87C A107G the self-cleavage was 0.66.
Variant G8A A43G G48U has a self-cleavage of 1.21.
For U9A A69U U73C, the self-cleavage was 0.06.
In the case of U9A U12C U52C U132A, the self-cleavage is reported as 1.48.
With G7A G88A U130A U143C the self-cleavage was 0.07.
With U9A U47C A79G the self-cleavage was 0.86.
For U9A U47C U52A A65G U73C U87A, the self-cleavage was 0.
Variant A6U U26C A77G has a self-cleavage of 1.09.
In the case of U9A U14C U96A, the self-cleavage is reported as 0.
Work on A6G U46C A65G yielded a self-cleavage of 0.25.
For A6U G11A A42U, the self-cleavage was 1.01.
Variant G8A A69U U81C U109C has a self-cleavage of 0.
A6U U13C A22G A117G C118U showed a self-cleavage of 1.01.
U9A U26A A57G U100C gave a self-cleavage of 2.42.
G8C A22U U47C gave a self-cleavage of 1.92.
A6U G11A U15A U91C C120U gave a self-cleavage of 0.9.
U9A U73A U104A A140U gave a self-cleavage of 0.91.
With U9A G36A G55A A117C the self-cleavage was 0.82.
In the case of G7A U87C U119A A124U U130C, the self-cleavage is reported as 0.3.
Work on A6U A77U A79G A107U U134A yielded a self-cleavage of 0.28.
U9A U20C C71U A138G A141G gave a self-cleavage of 2.04.
Variant A6G U15C U47G A77G U81C G97U A141G has a self-cleavage of 0.36.
With U9A G27A A69G A142G the self-cleavage was 0.42.
With U9A U45G U132C A136G the self-cleavage was 1.15.
Work on A6G U132C G137A yielded a self-cleavage of 0.65.
For G7U A57G U81A U100C, the self-cleavage was 2.35.
With A6G U29C C146U the self-cleavage was 0.55.
Work on U9A G35A A59G U73A U130C A138G yielded a self-cleavage of 0.04.
Variant A6G U26A U85A A107G A138G has a self-cleavage of 1.04.
G7A A30G C37U showed a self-cleavage of 1.2.
Variant A6U U108C A140G has a self-cleavage of 2.3.
A6U A94U U130C showed a self-cleavage of 0.36.
U9A U14C U81C gave a self-cleavage of 0.25.
A6G U62C U102C gave a self-cleavage of 0.
A6G U12C U15A A57G U108A showed a self-cleavage of 0.93.
With G7A A121C A136G the self-cleavage was 1.3.
In the case of G7U U47A A77U A79G A129U U130C, the self-cleavage is reported as 1.16.
A6U U20G U96C A124U showed a self-cleavage of 0.
With U9A U15C A24C G32A A129G the self-cleavage was 0.5.
In the case of A6G U12G A117G, the self-cleavage is reported as 2.3.
A6G U13C C116A gave a self-cleavage of 2.04.
With U9A A78U U134C the self-cleavage was 0.75.
U9A A92U G137A gave a self-cleavage of 0.18.
In the case of G7C A94G A107U U115C A136G, the self-cleavage is reported as 1.31.
Work on U9A U15C U29A A43G U115C A140G yielded a self-cleavage of 0.
In the case of A6U U14C U29C C63U A64G C103U, the self-cleavage is reported as 0.
A6U U9C A121G gave a self-cleavage of 0.79.
In the case of U9A U52A A65U G126A U134A A138G, the self-cleavage is reported as 0.2.
U9A U62A U81A A124C showed a self-cleavage of 0.04.
In the case of G8A U102C U132A, the self-cleavage is reported as 1.82.
Variant U9A U46C U85C C101U has a self-cleavage of 0.21.
In the case of A6U U23C G33U A94U, the self-cleavage is reported as 0.3.
Work on G8C U23C U45A U132C yielded a self-cleavage of 1.53.
U9A A67G U100C A124G gave a self-cleavage of 0.
For U9A G55A U102A, the self-cleavage was 0.11.
A6G U52A G93A A121U gave a self-cleavage of 0.1.
With U9A U13C U73G the self-cleavage was 0.57.
For A6G U46A U112C, the self-cleavage was 1.25.
Work on G8U U112C A141G yielded a self-cleavage of 1.72.
With U9A A79G U85C the self-cleavage was 0.
U9A U26A A107G U112C showed a self-cleavage of 0.
A6U U45A C84G U96A A140G gave a self-cleavage of 0.22.
Work on U9A A107G G135U yielded a self-cleavage of 1.19.
Work on A6G U15A A107G yielded a self-cleavage of 0.63.
In the case of U9A C61U A136G, the self-cleavage is reported as 0.05.
Variant A6U U47A A92G G114A has a self-cleavage of 0.14.
For U9A A78C U102C, the self-cleavage was 1.15.
U9A U20C U62C A77G C95U U112C gave a self-cleavage of 0.
For A6G U13C U112C A142G, the self-cleavage was 0.95.
For U9A U12C A69U U96C A136U, the self-cleavage was 0.11.
With U9A A22G A78C A79U U104C the self-cleavage was 2.53.
Variant U9A U14C U87A U109A has a self-cleavage of 0.1.
With G7A G8U U12G A30G A57U A141G the self-cleavage was 0.21.
In the case of A6G U14C A78G, the self-cleavage is reported as 0.99.
With G7U A22G U91C the self-cleavage was 0.31.
U9A U12G U20A A50G G122U gave a self-cleavage of 0.34.
Work on U9A U14C U73A U115C U130C yielded a self-cleavage of 1.31.
A6U U13C A64U U73C gave a self-cleavage of 0.56.
G8A A138G A140G A141G gave a self-cleavage of 0.79.
G8A C120U G127A U130C showed a self-cleavage of 1.18.
Work on G8A U45C A138U yielded a self-cleavage of 0.97.
Work on U9A C66U A121G A140G yielded a self-cleavage of 0.1.
U9A U13C U14C A50G U87C G127A showed a self-cleavage of 0.17.
Variant G8A A69U C111U A129G has a self-cleavage of 0.1.
For U9A U13G U102A, the self-cleavage was 1.89.
With G7A U12C C66U the self-cleavage was 0.12.
U9A A107G A121G showed a self-cleavage of 0.74.
For G7U U20A A24G U87C U100C, the self-cleavage was 0.
Work on U9A A69G G82A A140G yielded a self-cleavage of 0.34.
Work on U9A G33A U81C yielded a self-cleavage of 0.89.
With A6U U26C U91A A94U the self-cleavage was 0.19.
For G8U A129G U132C, the self-cleavage was 2.04.
A6U G33C U62C A124G showed a self-cleavage of 0.2.
U9A U47C U100C showed a self-cleavage of 0.
G7C U39A G72A gave a self-cleavage of 1.74.
Work on U9A U15G U96C yielded a self-cleavage of 0.17.
For A6U C28A C66G A79G A141G, the self-cleavage was 0.06.
With U9A A42G G48A A141G the self-cleavage was 0.88.
G7A U26C A59U U81C showed a self-cleavage of 0.
G8U U39C A124G A141G gave a self-cleavage of 1.84.
Variant G7U A30G U119C has a self-cleavage of 1.02.
Work on A6U U108C U115C yielded a self-cleavage of 2.14.
A6G U26C U52A A121C gave a self-cleavage of 1.28.
Variant A6G U13C U96C C123G has a self-cleavage of 0.22.
Work on G7C U39C A43U A94C yielded a self-cleavage of 0.71.
Work on U9A A43G U62C A142G yielded a self-cleavage of 0.
With U9A U14C G27A A50G U96C the self-cleavage was 0.
For A6U U20C A57G U62C A78G G122A, the self-cleavage was 0.
For U9A A24U U26A, the self-cleavage was 1.05.
Variant G8A U85C A136G has a self-cleavage of 0.5.
In the case of A6U U62A G106A C111U A138U, the self-cleavage is reported as 0.14.
U9A A64G A79G U100C A121U showed a self-cleavage of 0.51.
U9A U13C C18U G49A showed a self-cleavage of 0.29.
Variant U9A A42G U47C U102C C146U has a self-cleavage of 0.
G7A U9C A42G U115C gave a self-cleavage of 1.88.
G7A U14C U52A U96C C111U gave a self-cleavage of 0.05.
U9A U12C U15C showed a self-cleavage of 0.77.
In the case of A6U C19U U85C A129G, the self-cleavage is reported as 0.48.
A6G U119C U132C gave a self-cleavage of 0.94.
G8A U20A A142U gave a self-cleavage of 1.31.
A6G U20G A78G U115C gave a self-cleavage of 0.48.
U9A U47A G114A gave a self-cleavage of 0.98.
For A6U A69G A94G U132C, the self-cleavage was 0.92.
A6G U26C A43G A77U C131U gave a self-cleavage of 0.
For A6U A121U A142G, the self-cleavage was 0.51.
U9A U13C U85C G114A U119C G126U gave a self-cleavage of 0.07.
In the case of A6U U62C U91C U109A, the self-cleavage is reported as 0.14.
For G7A U15A A92U, the self-cleavage was 0.33.
For U9A U62G A79G U119C, the self-cleavage was 0.
In the case of A6G U46C C56U, the self-cleavage is reported as 0.52.
With G8A U9C U47C C56A U62C the self-cleavage was 0.13.
For U9A U15C A64G A141G, the self-cleavage was 0.38.
A6G U12C U39A showed a self-cleavage of 0.96.
For A6G U13A A79G, the self-cleavage was 0.21.
A6G U20A A42G U112C U115G G122C A124G U143C showed a self-cleavage of 1.84.
U9A U14C A31U G97A showed a self-cleavage of 0.06.
Work on A6U U15C C18U U102A yielded a self-cleavage of 1.02.
In the case of A6U G41U U46C, the self-cleavage is reported as 1.1.
In the case of A6G U15C G127C, the self-cleavage is reported as 0.98.
Work on A6U U39C C90U yielded a self-cleavage of 0.2.
U9A A117G G125A showed a self-cleavage of 1.09.
For G7U U46C G82U U143A, the self-cleavage was 1.25.
Variant A6G U39C U87G U100A U130C has a self-cleavage of 0.
A6G U26A G44A A59G gave a self-cleavage of 0.23.
With A6U U87C C95U U132C the self-cleavage was 0.15.
U9A A22G U130G showed a self-cleavage of 1.08.
